According to PubChem BioAssay AID360 (National Center for Advancing Translational Sciences (NCATS), 2006):
Among all 48,000 compounds or so, about 550 (1.1%) were called active. Another 4% or so got no clear call; they are omitted. Rule as the data show it: active = potency below about 15 µM; inconclusive = mostly about 16 µM to 33 µM; inactive = weaker than that. The list shows a part of the results.

target: Lysosomal acid glucosylceramidase (Homo sapiens) (UniProt P04062); assay: Glucocerebrosidase; settings: purified enzyme, resorufin glucoside fluorescence (screen aimed at inhibitors), 20 min; series mostly up to 77 µM;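 also: the screen sought inhibitors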
From the text: NCGC Assay Overview: Beta-glucocerebrosidase catalyzes the hydrolysis of beta-glucocerebroside to glucose and ceramide. The inherited deficiency of beta-glucocerebrosidase results in Gaucher disease, which is characterized by a wide variety of symptoms including hepatosplenomegaly, anemia, thrombocytopenia, bony lesions and bone marrow infiltration with characteristic storage cells, known as Gaucher cells. There are also forms of the disorder affecting the central nervous system. Patients with the same genotypes can manifest with diverse clinical presentations and it is believed that improper folding and trafficking of beta-glucocerbrosidase may contribute to the phenotypes observed. Low molecular weight molecules, acting as chaperones, may potentially restore trafficking of misfolded beta-glucocerebrosidase from the endoplasmic reticulum to the lysosomes, thereby enhancing functional lysosomal beta-glucocerebrosidase activity. Using normal beta-glucocerebrosidase, an assay was developed to screen for small molecule inhibitors that could potentially act as molecular chaperones on the mutant forms [developed with NIH investigator Dr. Ellen Sidransky's laboratory]. Two pro-fluorescent substrates were chosen for two screens against a small molecule library. One beta-glucocerebrosidase assay used Resorufin beta-D-Glucopyranoside (Marker Gene Technology Inc.), generating a red fluorescent product. The second assay used Fluorescein di-beta-D-Glucopyranoside, generating a blue fluorescent product. […] The IC50 values of Conduritol B Epoxide, a known glucocerebrosidase inhibitor, were determined to be 87.5 uM and 117 uM, respectively. The use of two difference pro-fluorescent substrates in the screens helped to eliminate false positives. All compounds were screened in a titration series resulting in AC50s (e.g., IC50s or EC50s).
NCGC Assay Protocol Summary: Both enzyme and substrate were diluted in buffer composed of 50mM citric acid/KH2PO4, 10mM sodium taurocholate and 0.01% tween-20 at pH 5.9. The final concentration of the enzyme was 0.2 nM in both assays. The compound library was titrated in 7 to 15 concentrations for the primary screens with a final concentration ranging from 0.6 nM to 50 uM. This particular assay protocol is for the "red" substrate, and it was performed in 1536-well plate format as follows: Red fluorescence substrate assay: 2 uL enzyme 23 nL compound 1 uL substrate (final concentration of 30 uM) Incubate at room temperature (RT) for 20 minutes Read the plate in Viewlux plate reader (Ex=548(7) and Em=600(10)).
Potency is read from the fitted curve at half-maximal effect.

Chain of UniProt P04062 (P04062 whole entry, looked up): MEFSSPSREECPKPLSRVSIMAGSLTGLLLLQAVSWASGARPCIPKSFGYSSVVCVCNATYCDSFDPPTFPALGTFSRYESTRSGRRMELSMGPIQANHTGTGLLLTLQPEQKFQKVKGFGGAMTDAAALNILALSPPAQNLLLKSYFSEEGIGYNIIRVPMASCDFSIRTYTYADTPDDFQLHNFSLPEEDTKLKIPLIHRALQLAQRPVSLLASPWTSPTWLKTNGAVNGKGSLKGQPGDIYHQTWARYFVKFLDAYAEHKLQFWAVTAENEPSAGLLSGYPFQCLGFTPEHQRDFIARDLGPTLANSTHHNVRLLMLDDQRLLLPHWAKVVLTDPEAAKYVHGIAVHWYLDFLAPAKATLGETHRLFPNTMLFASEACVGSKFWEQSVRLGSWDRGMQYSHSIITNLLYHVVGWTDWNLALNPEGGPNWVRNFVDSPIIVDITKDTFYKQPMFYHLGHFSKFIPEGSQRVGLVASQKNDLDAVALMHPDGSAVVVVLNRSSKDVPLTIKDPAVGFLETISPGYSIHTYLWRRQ

Potency, inactive:
CCc1nnc(NC(=O)CN2C(=O)c3ccccc3S2(=O)=O)s1 > 76.9 µM
O=C(O)C1C2C=CC(O2)C1C(=O)NCCC1=CCCCC1 (stereo unspecified) > 76.9 µM
COc1ccc2oc(=O)c(C(=O)NCC3CCCO3)cc2c1 (stereo unspecified) > 76.9 µM
CCOCCn1c(=O)c2c(nc3n2CCN3c2ccc(C)cc2)n(C)c1=O > 76.9 µM
CCCC(=O)Nc1c(O)c2ccccc2[nH]c1=O > 76.9 µM
CCOC(=O)N(Cc1ccccc1)C(C(=O)O)C(C(=O)O)N(Cc1ccccc1)C(=O)OCC (stereo unspecified) > 76.9 µM
COc1c(F)c(F)c(-c2csc(N)n2)c(F)c1F > 76.9 µM
N#Cc1cc2c(=O)n3ccccc3nc2n(CCCn2ccnc2)c1=N > 76.9 µM
COc1cc(-c2nnc(SCc3cc(=O)oc4cc(C)ccc34)o2)cc(OC)c1OC > 76.9 µM
CCN(CC)CCNC(=O)CS(=O)Cc1nc(-c2ccc(Cl)cc2)oc1C (stereo unspecified) > 76.9 µM
Fc1ccc(-n2c(Cc3ccccc3)nnc2SCc2nc(-c3cccs3)no2)cc1 > 76.9 µM
CCOc1ccccc1-c1nc(-c2ccc(C)nc2OC)no1 > 76.9 µM
O=S(=O)(NCc1ccco1)c1cccc(S(=O)(=O)N2CCOCC2)c1 > 76.9 µM
Cc1cc(C)c(C#N)c(N2CCCC2)n1 > 76.9 µM
O=C(CCN1CCN(c2ccc(Cl)cc2)CC1)Nc1ccccc1F > 76.9 µM
CCOc1ccc2c(c1)c1nnc(SCC3CCCO3)nc1n2C (stereo unspecified) > 76.9 µM
O=C(O)CN(c1ccc2c(c1)OCCO2)S(=O)(=O)c1ccccc1 > 76.9 µM
O=C(N1CCCC1)n1c(Cc2ccccc2)nc2ccccc21 > 76.9 µM
CCN1CCCC1CNC(=O)Cn1cccc1C(=O)c1ccccc1 (stereo unspecified) > 76.9 µM
COc1ccc(N2CCN(C(=O)CSc3nnc(-c4cccnc4)n3-c3ccccc3)CC2)cc1 > 76.9 µM
O=C(Nc1nc2nc(-c3ccccc3)cc(-c3ccccc3)n2n1)c1ccco1 > 76.9 µM
Nn1cnnc1SC1CCCCC1NS(=O)(=O)c1ccccc1 (stereo unspecified) > 76.9 µM
CCCN(CCC)CCNC(=O)Cn1cnc2sc(C)c(S(=O)(=O)N3CCOCC3)c2c1=O > 76.9 µM
CC(C)C1C(C#N)=C(N)Oc2n[nH]c(-c3ccccc3)c21 (stereo unspecified) > 76.9 µM
COc1cccc(=O)c2c(C)n(C)c(C)c12 > 76.9 µM
CC1=C(C(N)=O)C(c2ccc(Cl)cc2)NC(=O)N1 (stereo unspecified) > 76.9 µM
COc1cccc(OCC(=O)NC2CCCCC2)c1 > 76.9 µM
CCC1Oc2ccccc2N(CC(=O)NCCN2CCc3ccccc3C2)C1=O (stereo unspecified) > 76.9 µM
c1ccc2[nH]c(-c3cscn3)nc2c1 > 76.9 µM
COCc1[nH]nc2c1C(c1ccc(F)cc1F)C(C#N)=C(N)O2 (stereo unspecified) > 76.9 µM
CC(=O)OC(C(=O)NC1CCCCC1)c1ccc(C#N)cc1 (stereo unspecified) > 76.9 µM
O=c1cc(-c2ccccc2)c2ccccc2[nH]1 > 76.9 µM
O=S(=O)(c1ccc2ccccc2c1)N1CCN(S(=O)(=O)N2CCOCC2)CC1 > 76.9 µM
CCN1CCN(c2ccc(-n3c(C)nc4c(cnn4-c4ccccc4Cl)c3=O)cc2)CC1
c1ccc2c(c1)Cn1nc(Cc3nc4c(s3)CCCC4)nc1-2 > 76.9 µM
CCn1cc(C(=O)OC(C)C(=O)Nc2c(C)n(C)n(-c3ccccc3)c2=O)c(=O)c2ccc(C)nc21 (stereo unspecified) > 76.9 µM
COc1ccc(-n2c(SCC(=O)NCc3cccs3)nnc2-c2ccoc2C)cc1 > 76.9 µM
O=C(NCc1nnc(SCC(=O)N2CCCC2)o1)c1ccccc1F > 76.9 µM
COc1ccc(NC2=Nc3ccccc3CC2)cc1 > 76.9 µM
COCCCNC(=O)C1CCC(=O)N1Cc1ccccc1Cl (stereo unspecified) > 76.9 µM
COc1ccc(F)cc1S(=O)(=O)Nc1ccc(C)cc1 > 76.9 µM
COc1ccc(C2CC(c3ccc(Br)cc3)Nc3nc(N)nn32)cc1 (stereo unspecified) > 76.9 µM
CC(=O)Nc1nc(-c2ccc(Br)s2)cs1 > 76.9 µM
c1ccc(CNc2ncnc3ccccc23)cc1 > 76.9 µM
N=c1n(Cc2ccccc2)c2ccccc2n1CC(O)COc1ccccc1 (stereo unspecified) > 76.9 µM
CC(C)OCCCN1CN(S(=O)(=O)c2ccccc2)c2nc3ccccc3nc21 > 76.9 µM
Cc1nn2c(N)csc2nc1=O > 76.9 µM
Cc1ccc2cc3cc(C(=O)NCCC(C)C)oc3nc2c1 > 76.9 µM
CCn1c(SCC(=O)Nc2nc(C)cs2)nnc1-c1cccnc1 > 76.9 µM
Cc1[nH]c(=O)[nH]c(=O)c1CSc1nnc(CCCCCNC(=O)OC(C)(C)C)o1 > 76.9 µM
C=CCOC(=O)Nc1c(C(=O)OC)[nH]c2ccc(Cl)cc12 > 76.9 µM
COc1ccc(-c2nnn(CC(=O)NC3CCCc4ccccc43)n2)cc1OC (stereo unspecified) > 76.9 µM
CCC(=O)Nc1c2c(nn1-c1ccc(C)cc1C)CSC2 > 76.9 µM
O=C(CC1OC(=O)c2ccccc21)NC1CCCCC1 (stereo unspecified) > 76.9 µM
CCOC(=O)c1[nH]c(C)c(C(=O)N2CCN(c3ccccc3)CC2)c1C > 76.9 µM
COc1cc(NC(=O)c2ccco2)c(OC)cc1NC(=O)Nc1cccc(Cl)c1 > 76.9 µM
O=C(Nc1cccc(C(F)(F)F)c1)c1cc(S(=O)(=O)N2CCCCC2)ccc1N1CCOCC1 > 76.9 µM
C/C(Cl)=C\CSc1nnc2n(N)c(=O)c3ccccc3n12 > 76.9 µM
CCOC(=O)CCc1c(C)c2ccc(OCC(=O)N(CC)CC)c(C)c2oc1=O > 76.9 µM
Cc1ccc(S(=O)(=O)N(CCO)Cc2cc3ccc(C)c(C)c3[nH]c2=O)cc1 > 76.9 µM
CC(Oc1ccc(NC(=O)c2ccco2)cc1)C(=O)N1c2ccccc2CC1C (stereo unspecified) > 76.9 µM
Cc1cc(NC(=O)Cn2nc3c(cc2=O)CCCC3)ccc1Br > 76.9 µM
Cc1ccc(NC(=O)CN2C(=O)C(C)Oc3ccccc32)nc1 (stereo unspecified) > 76.9 µM
COc1ccc(CN(CC(=O)NCC2CCCO2)C(=O)CCC(=O)Nc2cc(C)ccn2)cc1 (stereo unspecified) > 76.9 µM
NC(=O)Nn1c(CCC(=O)O)ccc1-c1ccc(Br)cc1 > 76.9 µM
COc1cc(OC)cc(OCC(O)Cn2ccnc2)c1 (stereo unspecified) > 76.9 µM
CC(=O)Nc1nonc1NC(=O)CSc1ccccn1 > 76.9 µM
Cc1ccc(OCc2nnc(SCC(=O)Nc3cc(C)on3)n2C)cc1 > 76.9 µM
Cc1noc(C)c1CN1C(=O)NC(Cc2ccccc2)(Cc2ccccc2)C1=O > 76.9 µM
COc1ccc(OC)c(S(=O)(=O)N2CCC(C(=O)Nc3ccc(C)c(C)c3)CC2)c1 > 76.9 µM
CCC(=O)N1CCCc2cc(S(=O)(=O)N3CCCc4ccccc43)ccc21 > 76.9 µM
Cn1c(Cc2ccccc2)nnc1SCC(=O)Nc1ccccc1N1CCOCC1 > 76.9 µM
COc1cccc(NC(=O)CCS(=O)(=O)c2cccs2)c1 > 76.9 µM
Cc1cccc(C)c1NC(=O)CCCSc1nnc(-c2ccco2)n1-c1ccccc1 > 76.9 µM
Cc1cc(C)n(-c2nc(NCc3cccnc3)c3c4c(sc3n2)COC(C)(C)C4)n1 > 76.9 µM
CCOc1ccccc1C(=O)Nc1nccs1 > 76.9 µM
COCCn1c(=O)[nH]c2cc(C(=O)N3CCN(Cc4ccc5c(c4)OCO5)CC3)ccc2c1=O > 76.9 µM
CCOC(=O)c1c(C)c(C(=O)NCCCN2CCCC2=O)c(C)n1CC > 76.9 µM
CCN(CC)C(=O)c1cn(C)c2ccc(S(=O)(=O)N(CC)CC)cc2c1=O > 76.9 µM
Cn1c(Cc2ccccc2)nnc1SCC(=O)N1CCOCC1 > 76.9 µM
O=S(=O)(c1ccc(Br)s1)n1cccn1 > 76.9 µM
O=c1c2ccccc2nc(SCc2ccccc2)n1Cc1ccco1 > 76.9 µM
CC(C(=O)NCC1(c2ccccc2)CCCC1)N1CCOCC1 (stereo unspecified) > 76.9 µM
OC(COc1ccccc1)CSc1ncn[nH]1 (stereo unspecified) > 76.9 µM
Cc1cc(C)c(S(=O)(=O)N(CC(=O)N2CCOCC2)C2CCCCC2)c(C)c1 > 76.9 µM
Cc1nc(NC2=NCN(Cc3ccccc3)CN2)nc2ccccc12 > 76.9 µM
Cc1c(C(=O)NCc2ccc3c(c2)OCO3)oc2ccc(S(=O)(=O)N3CCCCCC3)cc12 > 76.9 µM
COc1ccc(CCN(CC(=O)NC2CCCC2)C(=O)CCC(=O)Nc2cc(C)on2)cc1OC > 76.9 µM
COc1ccc(F)cc1S(=O)(=O)NC(Cc1ccccc1)C(N)=O (stereo unspecified) > 76.9 µM
CCOc1cc(N2CCOCC2)c(OCC)cc1NC(=O)Cc1cn2ccsc2n1 > 76.9 µM
CC(C)(C)NC(=O)C(c1cccs1)N(CC1CCCO1)C(=O)Cn1nnc(-c2cccs2)n1 (stereo unspecified) > 76.9 µM
